Positions count from the first letter of the chain named. Results are given in words; binding and its absence hold for the method and conditions named. Some results given as binding are weak or reduced against the parent protein; the word gives no strength.

Amino acid sequences for entries named in this document (tags omitted). Residues count along the entry.
UniProt O43157, residues 1746-1851: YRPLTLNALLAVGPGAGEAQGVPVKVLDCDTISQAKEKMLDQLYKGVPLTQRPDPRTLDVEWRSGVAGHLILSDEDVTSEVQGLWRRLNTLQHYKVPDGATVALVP

In assay [1] the target is T1, Rnd3-L90R (GTP-binding domain, residues 16-200) (UniProt P61587).
T1 sequence: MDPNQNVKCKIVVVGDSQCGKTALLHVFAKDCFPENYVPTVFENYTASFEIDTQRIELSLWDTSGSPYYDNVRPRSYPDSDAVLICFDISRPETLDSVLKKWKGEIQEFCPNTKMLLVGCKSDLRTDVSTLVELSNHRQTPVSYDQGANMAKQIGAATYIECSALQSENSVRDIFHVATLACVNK
In words: condition: typically 400–600 μM Plexin-B1-RBD in the syringe, 40–60 μM Rnd3 protein in the cell; ITC; Plexin-B-RBD (400-600 uM, syringe) titrated into Rnd protein (40-60 uM, cell); 25°C; buffer 2: 50 mM sodium phosphate pH 7.0, 150 mM NaCl, 4 mM MgCl2, 3 mM DTT; independent binding sites model; both purified.

The target of assay [2] is T2, Rnd3-V87R (GTP-binding domain, residues 16-200) (UniProt P61587).
T2 sequence: T1 sequence with V72R, R75L
Described as above.

In assay [3] the target is T3, Rnd3 GTP-binding domain (residues 16-200), wild type (UniProt P61587).
T3 sequence: T1 sequence with R75L
In words: SEC; Superdex75 10/300, 4°C; 1:1 molar mixture, 100 uM of each protein; 50 mM sodium phosphate pH 7.0, 150 mM NaCl, 4 mM MgCl2, 3 mM DTT; size estimated from elution volume against the proteins alone; both purified.

The target in assay [4] is T4, Rnd2 GTP-binding domain (residues 2-184) (UniProt P52198).
T4 sequence: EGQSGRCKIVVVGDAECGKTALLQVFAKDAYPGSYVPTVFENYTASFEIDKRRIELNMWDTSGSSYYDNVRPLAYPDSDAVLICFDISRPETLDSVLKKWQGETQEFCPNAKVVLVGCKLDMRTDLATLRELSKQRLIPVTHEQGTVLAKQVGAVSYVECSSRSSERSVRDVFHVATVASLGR
The description is as above.

Assay [5] addresses T5, Rnd1 GTP-binding domain (residues 1-191) (UniProt Q92730).
T5 sequence: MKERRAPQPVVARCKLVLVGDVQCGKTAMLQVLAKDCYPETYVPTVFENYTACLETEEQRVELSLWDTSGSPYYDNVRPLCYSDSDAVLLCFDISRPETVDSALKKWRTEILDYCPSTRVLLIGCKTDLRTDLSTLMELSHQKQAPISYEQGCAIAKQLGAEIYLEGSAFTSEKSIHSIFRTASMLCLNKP
The assay is described as above.

Assay [6] deals with T1, Rnd3-L90R (GTP-binding domain, residues 16-200). As to the kind of experiment: condition: typically 400–600 μM Plexin-B2-RBD in the syringe, 40–60 μM Rnd3 protein in the cell; ITC; Plexin-B-RBD (400-600 uM, syringe) titrated into Rnd protein (40-60 uM, cell); 25°C; buffer 2: 50 mM sodium phosphate pH 7.0, 150 mM NaCl, 4 mM MgCl2, 3 mM DTT; independent binding sites model; both purified.

In assay [7] the target is T2, Rnd3-V87R (GTP-binding domain, residues 16-200). Described as above.

Turning to “Plexin-B1-RBD (Rho-binding domain of Plexin-B1, residues 1746-1851), histidine-tagged (from UniProt O43157 1746-1851) (domain or fragment)”, the binding result in assay [1] and in assay [2] was “no binding” each time.

B1: Plexin-B2-RBD (Rho-binding domain of Plexin-B2, residues 1452-1562) (domain or fragment, UniProt O15031 1452-1562, looked up)
chain: GLLGDDVEYAPLTVSVIVQDEGVDAIPVKVLNCDTISQVKEKIIDQVYRGQPCSCWPRPDSVVLEWRPGSTAQILSDLDLTSQREGRWKRVNTLMHYNVRDGATLILSKVG
notes: Vector pETDuet-1; tag removed with TEV protease; source: E. coli BL21 (DE3), purified (Nickel-NTA, TEV cleavage; in some cases ion exchange or size exclusion chromatography); not shown: His6, N-terminal, cleaved
As for B1, the binding result is recorded as “binds” in assay [3]; “binds” in assay [4]; “binds” in assay [5]; “no binding” in assay [6]; “no binding” in assay [7].

Source of the values: paper PMC5645086, “Analysis of the interaction of Plexin-B1 and Plexin-B2 with Rnd family proteins” (PLoS ONE, 2017).
